{"source": "PubChem BioAssay (NCATS)", "note": "Where “and” joins values, the source holds several entries; their conditions need not be identical. Equal values may be shown once. The inconclusive results got no clear call from the source; some entries with a clear call stand among them for comparison. Potencies of inconclusive entries are doubtful fits and often do not repeat. Calls of active or inactive are those of the source. The call rests on the fitted dose curve; in most records, active means well fitted cell-killing curve with a large enough effect; inconclusive means small, poorly fitted or top-dose-only effect, or effect the other way; inactive means no such curve, though single readings can be large or run the other way. Potency means the concentration at half of the fitted maximal effect; tags describe the fitted curve by direction and shape."}
{"experiment": "Viability qHTS for spleen associated tyrosine kinase inhibitor (SYKi) drug resistant MV4-11 cells (AID 1963824); further: nearly all actives have a fitted effect of over 35% in size", "conditions": "SYKi-resistant MV4-11 viability, CellTiter-Glo, 72 h; series mostly up to 45 µM; viability, % of control: at the top concentration", "source_text": "Department of Medicine, Hematology/Oncology\nUniversity Hospital Frankfurt, Germany.\nTrials have shown promising clinical activity of the selective SYK inhibitor entospletinib in patients with high expressing HOXA9/MEIS1 acute leukemias. As the development of resistance mechanisms is a common problem in the use of targeted drugs, we performed a chemical library screen to identify drug sensitivities in SYK inhibitor resistant AML cells. […] Glucocorticoids are potent immunosuppressants which work in part by inhibiting the transcription of cytokine genes.\nDescribed herein is a viability screen to look for activity in the SYK inhibitor drug resistant cell line against four NCATS compound libraries (MIPE 5.0, NPC, NPACT, and Kinase) totaling 11372 compounds. Active hits were reacquired for confirmation and further secondary assay testing.\nSEQUENCE No. (e.g., 1, 2, 3, etc.); […] (e.g., Cells, Incubation, Reagent, etc.); VALUE; DESCRIPTION.\n1; Media; 2uL; white, solid-bottom Corning assay plate.\n2; Compounds; 23nL; Echo acoustic dispenser.\n3; Cell; 5uL; 500 cells per well.\n4: Incubation; 72hr; 37 C, 5% CO2, 95% humidity.\n5; Reagent; 3uL; CellTiter-Glo reagent (Promega).\n6; Incubation; 10min; room temperature.\n7; Detection; Luminescence; ViewLux plate reader (PerkinElmer).\nNOTES (numbers refer to Sequence numbers above\n1. Quantitative high-throughput screening (qHTS) of small molecule compounds was conducted on drug resistant SYKi MV4-11 cell line.\n2. Twenty-three nanoliter of small molecule compounds were added to each assay plates using the Echo acoustic dispenser (Beckman Coulter).\n3. Cells were seeded into the assay plates at a final density of 500 cells in 5uL of media per well using the Multidrop Combi dispenser.\n4. Plates were covered with stainless steel gasketed lids and incubated for 72 hours at standard cell culture conditions.\n5. Viability was assessed by adding 3uL of CellTiter-Glo detection reagent (Promega).\n6. Plates were covered with gasket lids and incubated for 10 minutes at room temperature.\n7. Luminescence was measured on a ViewLux plate reader (PerkinElmer)."}
{"smiles": "S=C(c1ccc(-c2ccc(Cl)c(Cl)c2)o1)N1CCCCC1", "Potency": "inconclusive: 29.1 µM [cytotoxic, single point]"}
{"smiles": "CCCCc1ncc(/C=C(\\Cc2cccs2)C(=O)O)n1Cc1ccc(C(=O)O)cc1", "Potency": "inactive"}
{"smiles": "CC(C)=C1CC2C(CCC2(C)O)C(C)(O)CC1=O", "note": "(stereo not given)", "viability, % of control": "inactive: 99.8%"}
{"smiles": "Cn1cc(-c2ccc3nnc(Sc4ccc5ncccc5c4)n3n2)cn1", "Potency": "inconclusive: 16.6 µM [cytotoxic, partial curve]"}
{"smiles": "COc1cc(C2OCC3(O)C(c4ccc(O[C@@H]5O[C@H](CO)[C@@H](O)[C@H](O)[C@H]5O)c(OC)c4)OCC23O)ccc1O", "note": "(stereo not given in full)", "viability, % of control": "inactive: 75.1% [at 17.3 µM]"}
{"smiles": "COc1cc2c(cc1O)C1(Cc3ccc4c(c3C1=O)OCO4)N(C)CC2", "note": "(stereo not given)", "Potency": "inconclusive: 7.18 µM [cytotoxic, partial curve, poor fit]"}
{"smiles": "CCCOc1ccc2nc(NC(=O)OC)[nH]c2c1", "Potency": "inconclusive: 0.188 µM [cytotoxic, full curve]"}
{"smiles": "C/C(=C\\C(=O)OCCCCCCCCC(=O)O)C[C@@H]1OC[C@H](C[C@@H]2O[C@H]2[C@@H](C)[C@H](C)O)[C@@H](O)[C@H]1O", "Potency": "inconclusive: 5.8 µM [cytotoxic, partial curve]"}
{"smiles": "COC1=C2C[C@H](C)C[C@H](OC)[C@H](O)[C@@H](C)/C=C(/C)[C@H](OC(N)=O)[C@@H](OC)/C=C\\C=C(\\C)C(=O)NC(=CC1=O)C2=O", "Potency": "inconclusive: 0.0417 µM [cytotoxic, full curve]"}
{"smiles": "C=C1[C@@H]2[C@H]3OC(=O)C(=C)[C@@H]3CC[C@@](C)(O)[C@@H]2C[C@@H]1O[C@@H]1O[C@H](CO)[C@@H](O)[C@H](O)[C@H]1O", "viability, % of control": "inactive: 101% [at 17.3 µM]"}
{"smiles": "CC(=C(CCOC(=O)C(C)C)SSC(CCOC(=O)C(C)C)=C(C)N(C=O)Cc1cnc(C)nc1N)N(C=O)Cc1cnc(C)nc1N", "Potency": "inconclusive: 8.41 µM [cytotoxic, partial curve, poor fit]"}
{"smiles": "C=C1CO[C@@]2(O[C@H]3CC4C5CC=C6C[C@@H](O)C[C@@H](O[C@@H]7OC[C@H](O)[C@H](O[C@@H]8OC[C@@H](O)[C@H](O)[C@H]8O)[C@H]7O[C@@H]7O[C@@H](C)[C@H](OC(C)=O)[C@@H](OC(C)=O)[C@H]7OC(C)=O)[C@]6(C)C5CC[C@]4(C)[C@@H]3[C@@H]2C)[C@@H](O)[C@H]1OC1OC(C)C(O)C(O)C1O", "note": "(stereo not given in full)", "Potency": "inconclusive: 0.616 µM [cytotoxic, full curve]"}
{"smiles": "COCCOC(=O)C1=C(C)NC(C)=C(C(=O)OC(C)C)C1c1cccc([N+](=O)[O-])c1", "note": "(stereo not given)", "Potency": "inconclusive: 29.9 µM [cytotoxic, single point]"}
{"smiles": "CCNC(=O)NCc1cccc(Cl)c1", "viability, % of control": "inactive: 82.5%"}
{"smiles": "C/C(=C1/C(=O)Nc2ccc(NC(N)=O)cc21)c1ccc[nH]1", "Potency": "inconclusive: 0.184 µM [cytotoxic, full curve]"}
{"smiles": "C#CC1(O)CC[C@H]2[C@@H]3CCC4=CCCC[C@@H]4[C@H]3CC[C@@]21C", "note": "(stereo not given in full)", "Potency": "inconclusive: 13.3 µM [cytotoxic, partial curve]"}
{"smiles": "C/C=C/CCC1Cc2cc(O)c(CCCC)c(O)c2C(=O)O1", "note": "(stereo not given)", "Potency": "inconclusive: 18.4 µM [cytotoxic, single point]"}
{"smiles": "CC1(C)CCCC2(C)C1C(=O)C=C(C(=O)O)C2(O)C(=O)O", "note": "(stereo not given)", "Potency": "inconclusive: 13 µM [cytotoxic, partial curve]"}
{"smiles": "COC(=O)C1=CO[C@@H](O[C@@H]2O[C@H](CO)[C@@H](O)[C@H](O)[C@H]2O)[C@@H]2C(COC(C)=O)=C[C@H](O)[C@H]12", "Potency": "inconclusive: 15.9 µM [cytotoxic, single point]"}
{"smiles": "Cn1c(=O)c2c(ncn2CC(=O)O)n(C)c1=O", "Potency": "inconclusive: 0.0027 µM [rising, full curve, poor fit]"}
{"smiles": "C=C1C(=O)OC2/C=C(\\C)CC/C=C(\\C=O)C(OC)C(OC(=O)C(C)CC)C12", "note": "(stereo not given)", "Potency": "active: 2.02 µM"}
{"smiles": "CC(=O)OC(C)(C)/C=C/C(=O)C(C)(O)C1C(O)CC2(C)C3CC=C(C(C)(C)C(=O)O)C(CC(=O)O)C3(C)C(=O)CC12C", "note": "(stereo not given)", "Potency": "inconclusive: 6.85 µM [cytotoxic, single point]"}
{"smiles": "CC1=C(C)C(=O)OC(C(C)C2C(O)CC3C4C5OC5C5(O)CC(OC6OC(CO)C(O)C(O)C6O)CC(O)C5(C)C4CCC32C)C1", "note": "(stereo not given)", "viability, % of control": "inactive: 82.3% [at 17.3 µM]"}
{"smiles": "Fc1ccc2[nH]c(CN3CCN(c4ccccn4)CC3)cc2c1", "Potency": "inconclusive: 23.1 µM [cytotoxic, partial curve]"}
{"smiles": "N#C/C(=C1\\Nc2ccccc2S1)c1ccnc(NCCc2cccnc2)n1", "Potency": "active: 2.31 µM"}
{"smiles": "COCC(=O)N1CCc2cc(-c3csc(NC(=O)c4cc(OC)cc(OC)c4)n3)ccc21", "Potency": "inconclusive: 29.1 µM [cytotoxic, single point]"}
{"smiles": "Cc1csc2c(N[C@@H](C)CN3CCN(S(=O)(=O)c4ccc(Cl)c(Cl)c4)CC3)ncnc12", "Potency": "active: 0.231 µM"}
{"smiles": "CCCN1CCC=C(c2cc(-c3ccc(C)cc3)no2)C1", "Potency": "inconclusive: 18.4 µM [cytotoxic, single point]"}
{"smiles": "Cn1c(=O)c2c(ncn2CC(O)CO)n(C)c1=O", "note": "(stereo not given)", "Potency": "inactive"}
{"smiles": "COc1cc(O)c2c(c1Cl)CC(C)OC2=O", "note": "(stereo not given)", "viability, % of control": "inactive: 97.9%"}
{"smiles": "CN1CCN(C2=Nc3ccccc3Nc3ccc(Cl)cc32)CC1", "Potency": "inconclusive: 20.6 µM [cytotoxic, partial curve]"}
{"smiles": "COC(=O)N1CCC(n2ncc3c(N4CCOCC4)nc(-c4ccc(NC(=O)Nc5ccc(CO)cc5)cc4)nc32)CC1", "Potency": "active: 0.0184 µM"}
{"smiles": "CCc1cccc(CC)c1NC(=O)CN(CC(=O)O)CC(=O)O", "Potency": "inconclusive: 15 µM [cytotoxic, single point]"}
{"smiles": "COC(=O)CCSCc1ccc(-c2onc(C)c2NC(=O)OC(C)c2ccccc2Cl)cc1", "note": "(stereo not given)", "Potency": "inconclusive: 18.4 µM [cytotoxic, single point]"}
{"smiles": "C=C1C(=O)O[C@@H]2/C=C(/C)[C@@H](OC(C)=O)C/C=C(\\C)C[C@@H](OC(=O)/C(=C/CO)CO)[C@@H]12", "Potency": "active: 3.55 µM"}
{"smiles": "CN1C(N)=N[C@](C)(c2cc(NC(=O)c3ccc(F)cn3)ccc2F)CS1(=O)=O", "Potency": "inconclusive: 20.9 µM [cytotoxic, partial curve]"}
{"smiles": "COc1ccc(Cl)c(Nc2nc3ccccc3nc2NS(=O)(=O)c2cccc(NC(=O)C(C)(C)N)c2)c1", "Potency": "active: 8.2 µM and inconclusive: 10.5 µM [cytotoxic, partial curve]"}
{"smiles": "CC(=O)OC1C(O)C2C(C)C3=CC(=O)OC3(O)CC2C2(C)CCCC(C)(CO)C12", "note": "(stereo not given)", "Potency": "inconclusive: 7.96 µM [cytotoxic, partial curve, poor fit]"}
{"smiles": "C=C[C@H]1C(O[C@@H]2O[C@H](CO)[C@@H](O)[C@H](O)[C@H]2O)OC=C2C(=O)N3CCc4c([nH]c5ccccc45)[C@H]3C[C@H]21", "note": "(stereo not given in full)", "viability, % of control": "inactive: 92.1% [at 17.3 µM]"}
{"smiles": "C=C[C@]1(C)C=C2CCC3C(C)(CCC[C@@]3(C)C(=O)O)C2CC1", "note": "(stereo not given in full)", "viability, % of control": "inactive: 78.1%"}
